At least one compound was matched to its structure with a doubt left. Numbered stars: 1 amine (or outer) side, 2 acyl side, 3 side chain; on linkers, the order of the positions; unused ones are H or OH. Bridge positions count the residues as written; N and C are the ends. Square brackets hold non-standard residues; d marks the D form. * marks the point of attachment. C18 diacid = O=C(O)CCCCCCCCCCCCCCCCC(=O)*; γGlu = O=C(O)[C@H](CCC(=O)[*:2])N[*:1]; 4Pal = N[C@@H](Cc1ccncc1)C(=O)O; CH2 = C([*:1])[*:2]
Biological target: T1, rat NPRA (Rattus norvegicus, UniProt P18910)
T1 construct: Full-Length cDNA Cloning and Generation of Cell Lines Overexpressing Natriuretic Peptide Receptors (NPRs); expressed in transfected cells; host or cells: Jump-in T-Rex HEK293 cells, pJTI R4 CMV-TO MCS pA vector, tetracycline induction
T1 sequence (P18910 29-1057): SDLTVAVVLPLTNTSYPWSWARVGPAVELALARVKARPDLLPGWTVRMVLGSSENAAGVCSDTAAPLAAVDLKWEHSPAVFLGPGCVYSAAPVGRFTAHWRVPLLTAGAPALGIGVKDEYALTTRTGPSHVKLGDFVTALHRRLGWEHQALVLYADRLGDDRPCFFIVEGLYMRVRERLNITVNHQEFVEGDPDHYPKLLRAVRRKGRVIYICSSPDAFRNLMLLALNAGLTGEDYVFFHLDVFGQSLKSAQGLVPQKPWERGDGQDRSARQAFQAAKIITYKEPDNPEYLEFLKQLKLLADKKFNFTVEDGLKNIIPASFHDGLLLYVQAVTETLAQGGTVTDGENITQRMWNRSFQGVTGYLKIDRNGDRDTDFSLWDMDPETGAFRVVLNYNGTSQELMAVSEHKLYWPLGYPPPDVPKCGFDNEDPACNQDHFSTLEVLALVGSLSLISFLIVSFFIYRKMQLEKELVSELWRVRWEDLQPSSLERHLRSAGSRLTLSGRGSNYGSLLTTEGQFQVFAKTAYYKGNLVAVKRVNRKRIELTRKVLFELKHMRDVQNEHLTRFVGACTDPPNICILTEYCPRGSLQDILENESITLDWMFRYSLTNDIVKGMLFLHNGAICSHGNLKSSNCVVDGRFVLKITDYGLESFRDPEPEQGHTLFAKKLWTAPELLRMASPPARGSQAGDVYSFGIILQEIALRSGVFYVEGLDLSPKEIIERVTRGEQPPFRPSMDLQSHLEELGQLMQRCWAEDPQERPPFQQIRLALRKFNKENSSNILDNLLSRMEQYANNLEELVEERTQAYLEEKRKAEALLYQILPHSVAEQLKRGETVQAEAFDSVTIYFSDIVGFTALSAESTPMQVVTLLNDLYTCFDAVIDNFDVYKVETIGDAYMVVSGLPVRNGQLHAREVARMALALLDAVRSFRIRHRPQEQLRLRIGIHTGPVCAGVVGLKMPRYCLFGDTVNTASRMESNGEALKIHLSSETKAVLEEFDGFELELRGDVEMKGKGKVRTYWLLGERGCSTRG
Experiment: Rat NPRA cGMP activity assay (HTRF) in HEK293 cells overexpressing NPRA
Type: cell-based
Details: assay buffer with 0.1% casein, read-out: cGMP Assay (EC50, pM) w/Casein rNPRA
Protocol: All sequences were verified by full-length sequencing performed by ACGT DNA Sequencing Services (Wheeling, IL). The target cDNA was cloned into pJTI R4 CMV-TO MCS pA vector and then co-transfected with pJT1R4 Int vector into Jump-in™ T-Rex™ HEK293 cells for mammalian inducible expression using Jump-in™ T-Rex™ HEK293 kit and Lipofectamine LTX and Plus Reagent following manufacturer's protocols, as briefly described below.
Jump-in™ T-Rex™ HEK293 cells were plated in a BioCOAT® poly-D-lysine coated 6-well plate (Becton Dickinson, cat no. 354413) at 1 million cells/well in 2 mL culture medium and incubated for 18 h at 37° C. and 5% CO2 to 50-70% confluence. A cDNA mix was made in a 50 mL tube by adding 1.5 μg target cDNA, 1.5 μg pJT1R4 Int vector, 3 μL Plus Reagent, and 300 μL Opti-MEM I sequentially into the tube. […]
NPRs were overexpressed in T-Rex™ HEK293 cells following the induction with 300 ng/mL tetracycline in culture medium for 48 h. Induced cell lines in an exponential growth phase were treated with 0.05% trypsin-EDTA for a few seconds at room temperature, harvested in cell medium containing FBS to neutralize the trypsin, counted, and cryopreserved at the density of 2 million cells/mL in cell preservation solution containing FBS-HI with 5% DMSO. […]
The cGMP generated was measured using cGMP kit following the manufacturer's directions, as described below.

Question: How did the EC50 turn out when “{C18 diacid-γGlu}-EKEKEKGS[4Pal]RRSSCFGGRIDRIGHQSGLGCPSFRHGGKSSGAPPPS-NH2 (linker 14-30 via CH2; N-terminus assumed) [Example 72]” was run?
Answer: Its EC50 is 40500 pM.

— patent US20240174727A1, “LONG-ACTING NATRIURETIC PEPTIDES AND USES THEREOF” (Eli Lilly and Company, priority 2022, published 2024)
